Reference: publication PMC4081100
The entries are a selection whose mix differs from that of the whole data set. At the low end of the ranking the order means little.

Target: T1, GST-ATAF1 NAC domain (UniProt Q39013)
T1 sequence: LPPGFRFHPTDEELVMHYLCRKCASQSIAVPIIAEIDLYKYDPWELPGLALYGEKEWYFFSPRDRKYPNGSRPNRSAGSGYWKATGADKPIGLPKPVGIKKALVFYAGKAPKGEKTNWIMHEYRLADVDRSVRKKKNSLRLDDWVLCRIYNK
Assay: universal protein binding microarray (PBM)
Conditions: high values mean tight binding; double strand, one strand shown

| Sequence | binding signal |
| --- | --- |
| CTGTTGAC | -0.0408 E-score |
| CTTAAGGA | -0.0455 E-score |
| GGGGTCAA | -0.123 E-score |
| AGGGAAAG | -0.0871 E-score |
| CACGCTAG | 0.0278 E-score |
| CTTGACCC | -0.176 E-score |
| ACCGTCAA | 0.0205 E-score |
| CACTCAAC | 0.0909 E-score |
| GTCAGTCA | -0.0709 E-score |
| CGTAGACC | -0.00481 E-score |
| GGTCAAAA | 0.0384 E-score |
| GTCAAGCA | -0.0328 E-score |
| CGTTGACA | 0.0029 E-score |
| CCAAGTCA | -0.0819 E-score |
| GCGTCAAC | 0.00133 E-score |
| CACGCGAA | -0.0348 E-score |
| GGCGTCAA | -0.083 E-score |
| TATACGCA | 0.231 E-score |
| GTCAACAA | 0.191 E-score |
| AAGTCATC | 0.0124 E-score |
| CTTACGCA | 0.187 E-score |
| GAGTTGAC | 0.0457 E-score |

Target: T2, GST-ANAC092(1-285) full length (UniProt Q9FKA0)
T2 sequence: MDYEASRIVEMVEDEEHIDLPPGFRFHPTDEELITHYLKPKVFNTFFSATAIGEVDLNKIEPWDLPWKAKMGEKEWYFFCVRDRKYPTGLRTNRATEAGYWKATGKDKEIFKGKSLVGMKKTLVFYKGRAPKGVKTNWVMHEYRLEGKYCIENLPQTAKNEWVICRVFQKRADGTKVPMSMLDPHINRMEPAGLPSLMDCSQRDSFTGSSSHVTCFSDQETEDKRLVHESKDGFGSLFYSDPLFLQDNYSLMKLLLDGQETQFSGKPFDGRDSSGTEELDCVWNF
Assay: universal protein binding microarray (PBM)
Conditions: high values mean tight binding; double strand, one strand shown

| Sequence | binding signal |
| --- | --- |
| CTTAAGGA | -0.00475 E-score |
| AAGGAATG | 0.115 E-score |
| GTCAAGTA | 0.186 E-score |
| AGGGAAAG | -0.0199 E-score |
| CTTGACCC | -0.01 E-score |
| CGTAGACC | 0.000565 E-score |
| GGTCAAAA | 0.043 E-score |
| GTCAAGCA | 0.106 E-score |
| CTTAGTCA | -0.0175 E-score |
| CGTTGACA | -0.0367 E-score |
| CCAAGTCA | 0.0028 E-score |
| GCGTCAAC | 0.109 E-score |
| GGCGTCAA | -0.00502 E-score |
| TATACGCA | 0.4 E-score |
| TGACTCAA | 0.131 E-score |
| CTTACGCA | 0.389 E-score |
| GAGTTGAC | -0.0154 E-score |

Target: T3, GST-NAP(1-166) (UniProt O49255)
T3 sequence: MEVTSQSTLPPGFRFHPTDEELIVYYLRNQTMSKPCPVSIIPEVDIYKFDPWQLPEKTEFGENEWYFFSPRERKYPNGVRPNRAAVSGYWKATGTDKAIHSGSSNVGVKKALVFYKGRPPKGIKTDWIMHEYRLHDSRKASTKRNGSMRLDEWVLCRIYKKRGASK
Assay: universal protein binding microarray (PBM)
Conditions: high values mean tight binding; double strand, one strand shown

| Sequence | binding signal |
| --- | --- |
| CTGTTGAC | 0.0104 E-score |
| GTCAAGAA | 0.0595 E-score |
| CTTAAGGA | -0.206 E-score |
| AAGGAATG | 0.0456 E-score |
| GGGGTCAA | -0.108 E-score |
| GTCAAGTA | 0.0229 E-score |
| AGGGAAAG | -0.084 E-score |
| TAGGGAAA | -0.0299 E-score |
| CTTGACCC | -0.053 E-score |
| TCAAGTCA | 0.00962 E-score |
| ACGCCACG | 0.0244 E-score |
| CACTCAAC | 0.00159 E-score |
| CACACGCC | 0.0229 E-score |
| GTCAGTCA | 0.0353 E-score |
| CGTAGACC | -0.0515 E-score |
| GGTCAAAA | -0.0558 E-score |

| Sequence | binding signal |
| --- | --- |
| GTCAAGCA | -0.187 E-score |
| CTTAGTCA | 0.036 E-score |
| CGTTGACA | 0.0164 E-score |
| GAAGAAAC | 0.00068 E-score |
| CCAAGTCA | 0.015 E-score |
| GCGTCAAC | 0.028 E-score |
| GTTGACTA | 0.0198 E-score |
| CACGCGAA | -0.0358 E-score |
| TTAAGGAA | -0.13 E-score |
| GGCGTCAA | -0.178 E-score |
| TAAAGTCA | -0.0664 E-score |
| TGACTCAA | -0.104 E-score |
| GTCAATTA | -0.0195 E-score |
| AAGTCAAT | -0.115 E-score |
| GAGTTGAC | -0.0315 E-score |

Target: T4, GST-NST2(1-184) (UniProt Q9M274)
T4 sequence: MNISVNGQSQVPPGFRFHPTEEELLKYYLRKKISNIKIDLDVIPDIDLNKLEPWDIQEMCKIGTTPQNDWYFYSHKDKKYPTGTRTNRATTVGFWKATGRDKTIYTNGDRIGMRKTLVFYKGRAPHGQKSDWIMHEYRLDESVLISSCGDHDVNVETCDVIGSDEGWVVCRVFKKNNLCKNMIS
Assay: universal protein binding microarray (PBM)
Conditions: high values mean tight binding; double strand, one strand shown

| Sequence | binding signal |
| --- | --- |
| CTGTTGAC | 0.0185 E-score |
| GTCAAGAA | 0.0986 E-score |
| CTTAAGGA | 0.0872 E-score |
| AAGGAATG | 0.196 E-score |
| GGGGTCAA | -0.0308 E-score |
| GTCAAGTA | 0.00519 E-score |
| AGGGAAAG | -0.169 E-score |
| TAGGGAAA | 0.00907 E-score |
| CTTGACCC | -0.0426 E-score |
| ACCGTCAA | 0.0111 E-score |
| GTCAGTCA | -0.00585 E-score |
| CGTAGACC | -0.0507 E-score |
| GGTCAAAA | -0.00022 E-score |
| GTCAAGCA | 0.0342 E-score |
| CTTAGTCA | -0.0349 E-score |
| CGTTGACA | -0.0514 E-score |
| CCAAGTCA | -0.00062 E-score |
| GTTGACTA | 0.0271 E-score |
| TTAAGGAA | 0.139 E-score |
| GGCGTCAA | -0.0763 E-score |
| TAAAGTCA | 0.0158 E-score |
| TGACTCAA | 0.05 E-score |
| CTTACGCA | 0.278 E-score |
| AAGTCAAT | 0.0431 E-score |

Target: T5, GST-NTL8 NAC domain (UniProt Q9XIN7)
T5 sequence: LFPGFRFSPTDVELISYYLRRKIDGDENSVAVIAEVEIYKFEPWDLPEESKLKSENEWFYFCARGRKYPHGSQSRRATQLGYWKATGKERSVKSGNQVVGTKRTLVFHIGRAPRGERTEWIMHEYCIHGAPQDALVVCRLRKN
Assay: universal protein binding microarray (PBM)
Conditions: transcription factors of Arabidopsis thaliana; high values mean tight binding; most listed sequences are background and not binding sites; double strand, one strand shown

| Sequence | binding signal |
| --- | --- |
| CTGTTGAC | -0.0969 E-score |
| GTCAAGAA | 0.0297 E-score |
| CTTAAGGA | 0.179 E-score |
| AAGGAATG | 0.293 E-score |
| GTCAAGTA | -0.0531 E-score |
| AGGGAAAG | 0.473 E-score |
| CACGCTAG | -0.0495 E-score |
| CTTGACCC | 0.0908 E-score |
